# In publication PMC4336329 (PLoS ONE, 2015):
# About 14,000 (4.5%) of roughly 310,000 compounds showed an effect of 50% or more. Effects have a minus sign here. The list shows a part of the results.
# Molecular target: human ether-à-go-go-related gene (hERG) potassium channel (human, UniProt Q12809)
# Assay: primary screen, population patch clamp on CHO cells stably expressing hERG
# 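Further: peak tail current of the secondary pulse compared with the same well before compound.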
# Sequence of human ether-à-go-go-related gene (hERG) potassium channel (Q12809 whole entry, looked up): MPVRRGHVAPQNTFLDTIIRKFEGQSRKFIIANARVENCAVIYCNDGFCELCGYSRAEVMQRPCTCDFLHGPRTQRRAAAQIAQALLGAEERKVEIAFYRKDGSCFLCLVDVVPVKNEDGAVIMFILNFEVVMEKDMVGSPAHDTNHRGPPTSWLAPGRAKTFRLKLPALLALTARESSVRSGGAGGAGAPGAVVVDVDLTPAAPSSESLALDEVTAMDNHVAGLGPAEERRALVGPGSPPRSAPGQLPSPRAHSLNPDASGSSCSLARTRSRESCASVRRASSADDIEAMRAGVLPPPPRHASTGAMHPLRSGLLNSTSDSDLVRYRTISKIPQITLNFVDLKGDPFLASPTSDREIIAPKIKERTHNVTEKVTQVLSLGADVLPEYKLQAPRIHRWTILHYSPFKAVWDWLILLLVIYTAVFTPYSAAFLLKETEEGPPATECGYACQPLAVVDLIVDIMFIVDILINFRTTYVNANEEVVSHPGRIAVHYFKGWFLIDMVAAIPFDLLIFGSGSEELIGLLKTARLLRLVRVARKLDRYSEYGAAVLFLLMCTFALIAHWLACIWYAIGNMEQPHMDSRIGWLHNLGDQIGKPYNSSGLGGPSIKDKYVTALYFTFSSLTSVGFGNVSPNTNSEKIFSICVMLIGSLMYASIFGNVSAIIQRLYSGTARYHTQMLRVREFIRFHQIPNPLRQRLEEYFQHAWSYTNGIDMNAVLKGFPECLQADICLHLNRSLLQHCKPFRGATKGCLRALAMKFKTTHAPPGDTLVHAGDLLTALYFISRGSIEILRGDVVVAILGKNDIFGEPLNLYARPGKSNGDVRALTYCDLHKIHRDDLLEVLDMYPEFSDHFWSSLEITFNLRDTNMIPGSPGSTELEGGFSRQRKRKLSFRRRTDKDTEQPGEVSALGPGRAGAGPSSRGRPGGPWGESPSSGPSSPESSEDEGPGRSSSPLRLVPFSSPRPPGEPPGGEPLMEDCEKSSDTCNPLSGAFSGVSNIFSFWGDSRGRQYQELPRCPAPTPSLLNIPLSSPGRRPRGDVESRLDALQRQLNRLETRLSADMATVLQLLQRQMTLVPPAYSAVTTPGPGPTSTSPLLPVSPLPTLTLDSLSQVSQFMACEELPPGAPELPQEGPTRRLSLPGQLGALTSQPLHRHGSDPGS
row,SMILES,"hERG current change (%, negative = inhibition) at 10uM [%]"
1,COC(=O)c1cccc(CSc2nnc(C)s2)c1,-1.67
2,C[C@H](NC(=O)c1[nH]cnc1C(=O)Nc1ccc(CNC(=O)OC(C)(C)C)cc1)C(=O)OC(C)(C)C,17.2
3,CC(=O)C1=NOC(CNC(=O)c2c(-c3ccccc3Cl)noc2C)C1 (stereo not drawn),9.1
4,Cc1ccc(C)c(NC(=O)CCC(=O)N/N=C/c2cccnc2)c1,14.7
5,CCCn1c(N)c(C(=O)CSc2ncn[nH]2)c(=O)n(C)c1=O,25.3
6,NS(=O)(=O)c1ccc(NC(=O)COC(=O)CCc2ccc(S(=O)(=O)N3CCOCC3)cc2)cc1,10.4
7,CCCC(=O)Nc1nnc(-c2cccc(OCC)c2)s1,7.25
8,CCn1c(C)cc(/C=C2/SC(=S)N(CC(=O)O)C2=O)c1C,9.75
9,O=C(c1sc2ccccc2c1Cl)N(Cc1ccco1)C1CCS(=O)(=O)C1 (stereo not drawn),0.891
10,CCN(Cc1ccccc1)C(c1ccncc1)c1nnnn1C(C)(C)C (stereo not drawn),0.0215
11,COCCn1c(SCC(=O)NNC(=O)Cc2ccccc2)nc2ccccc2c1=O,0.604
12,C#CCN1CCN(c2ccc(F)cc2)CC1,5.72
13,CS(=O)(=O)c1cnc2c(-c3ccsc3)cnn2c1N,2.43
14,CCOC(=O)c1[nH]ncc1CN1CCC(Cc2ccccc2)(C(=O)OCC)CC1,-35.3
15,COc1ccc(S(=O)(=O)N(C(=O)C(C)C)c2ccc3oc(=O)sc3c2)cc1,4.16
16,Cc1ccc(-c2csc(NC(=O)CCNC(=O)c3ccco3)n2)cc1,5.76
17,O=C(c1cccs1)N1CCCC1,12.3
18,CCOC(=O)C1CN(C)CCC1=O.Cl (stereo not drawn),6.3
19,CC(=O)c1cccc(NC(=O)CSc2nc(=O)n(CCCN3CCOCC3)c3c2CCC3)c1,-29.1

row,SMILES,"hERG current change (%, negative = inhibition) at 10uM [%]"
1,Cc1c(NC(=O)c2ccc(S(=O)(=O)N3CCOCC3)cc2)c(=O)n(-c2ccccc2)n1C,10.1
2,O=C(OCCCN1CCCCC1)c1ccc(O)cc1,-54.6
3,Brc1cccc(OCCCN2CCCCCC2)c1.O=C(O)C(=O)O,-70
4,CCOCCCNc1nc2c(c(=O)[nH]c(=O)n2C)n1CCCc1ccccc1,-12.9
5,O=C(CSc1nc2c(cnn2-c2ccccc2)c(=O)[nH]1)N1CCCCC1,-15.6
6,Cc1cccc(N2CC(C(=O)Nc3nc4ccc(S(C)(=O)=O)cc4s3)CC2=O)c1C (stereo not drawn),-0.339
7,CCCCCc1c(O)nc(SCCN(CC)CC)[nH]c1=O.Cl,9.87
8,CCNC(=O)NCCNC(=O)c1cc(OCC(F)(F)F)ccc1OCC(F)(F)F,-1.64
9,CSCCC(NC(=O)c1ccccc1)C(=O)NC1CC1 (stereo not drawn),18.8
10,CCCn1c2c(c(O)c(C(=O)NCc3ccccc3)c1=O)CCCC2,17
11,Cc1ccc(-c2nnc(SCC(=O)Nc3nccs3)n2N)cc1,-10.4
12,COc1cc(C)ccc1Oc1ncnc(N)c1[N+](=O)[O-],9.66
13,CC1(C)COC2(OC1)C(=O)N(CN1CCOCC1)c1ccccc12,16.3
14,O=C(Cc1ccccc1)NN1C(=O)c2ccccc2C1=O,-9.37
15,O=C(C1CCN(S(=O)(=O)c2ccccc2)CC1)N1CCCCCC1,-3.55
16,COc1ccc2c(c1)c1c3n2CCN(C)C3=NCC1.Cl,-67.7
17,Cc1cccc(NC(=O)C2C3C=CC(C4CC34)C2C(=O)O)c1 (stereo not drawn),-12.8
18,COC(=O)C1C(=O)C2=C(CC1C)NC(C)=C(C(=O)OC(C)C)C2c1ccc(OC)c(O)c1 (stereo not drawn),8.68
19,COC(=O)c1cccc(NC(=O)Nc2ccc(Cl)cc2)c1,4.61

row,SMILES,"hERG current change (%, negative = inhibition) at 10uM [%]"
1,CCOC(=O)N1CCC(=NNC(=O)Cn2ccc(C(F)(F)F)n2)CC1,15.3
2,C#CCn1cc[n+](CC(=O)N(C)C)c1.[Br-],5.28
3,COc1ccc(OC)c(-c2cc(C(=O)Nc3cc(C)n(Cc4ccc(Cl)cc4)n3)no2)c1,-2.91
4,CCOc1ccc(Oc2c(/C=N/NC(=O)COc3ccccc3OC)c(C)nn2-c2ccccc2)cc1,17.6
5,S=c1nccc(-c2cccs2)[nH]1,8.78
6,O=C(CSc1nnc2c(Cl)cc(Cl)cn12)NC1CCS(=O)(=O)C1 (stereo not drawn),-5.28
7,O=C(O)c1[nH]c2ccccc2c1NS(=O)(=O)Cc1ccccc1,-2.83
8,NS(=O)(=O)c1ccc(NC(=O)NC2CC(=O)N(c3ccc4c(c3)OCCO4)C2)cc1 (stereo not drawn),2.12
9,CCOC(CC(=O)NNC(=O)c1c(-c2c(Cl)cccc2Cl)noc1C)OCC,14.3
10,O=P(Nc1ccccc1)(Nc1ccccc1)Oc1cccc(Cl)c1,-5.63
11,COC(=O)c1ccc(Nc2ncnc3c2cnn3-c2cccc(C)c2)cc1,9.28
12,O=C(NCC1CCCN(Cc2ccc3nonc3c2)C1)c1cccc(C(F)(F)F)c1 (stereo not drawn),-61.5
13,N=c1c2c3c(sc2nc2n1CCC2)CCCC3,-28.9
14,CCO[C@@H]1OC(C(=O)N2CCN(C)CC2)=C[C@H](c2ccc(C(F)(F)F)cc2)[C@H]1CCCO,-1.51
15,CN1CCN(S(=O)(=O)c2cccc(C(=O)NCc3ccccc3Cl)c2)CC1,-13.8
16,COc1ccccc1CNC(=O)CNC(=O)c1sc2ccccc2c1Cl,4.96
17,O=C(NCCCn1ccnc1)C(Cc1ccc([N+](=O)[O-])cc1)N1C(=O)c2ccccc2C1=O (stereo not drawn),-62.3
18,COc1ccccc1N(CC(=O)Nc1cc(C)on1)S(=O)(=O)c1ccc(Cl)cc1,-10.9
19,COc1ccc(S(=O)(=O)N2c3ccc(F)cc3CCC2C)cc1 (stereo not drawn),-9.99
